Experimental data as given in the supplement of paper PMC9446081.
Hit rate of the full screen: of about 39,000 compounds, about 220 (0.56%) showed activity. The list shows a part of the results.
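Further: static incubation at 37 °C against the wild-type strain, values averaged over two biological replicates.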

Each compound was assayed on Escherichia coli K-12 BW25113 (assay: relative growth (OD600 normalised to plate interquartile mean) (fraction); higher = less growth inhibition, active = 0.2 or less). Details: 50 µM; LB; incubation time: overnight (16-24 h).
With `O=C(C[C@@H]1CC[C@@H]2[C@H](COC[C@H](O)CN2S(=O)(=O)c2ccc(Oc3ccccc3)cc2)O1)NC1CCC1` the relative growth was inactive: 1.01.
`C[C@@H]1CCCCO[C@@H](CN(C)C(=O)NC2CCCCC2)[C@@H](C)CN([C@H](C)CO)C(=O)c2cc(NC(=O)CCCCCC(=O)Nc3ccccc3N)ccc2O1` was tested, and the relative growth was inactive: 0.985.
`C[C@H](CO)N1C[C@H](C)[C@@H](CN(C)C(=O)Nc2ccc3c(c2)OCO3)Oc2ccc(NC(=O)CCCN(C)C)cc2C1=O` was tested, and the relative growth was inactive: 1.
In the case of `CC[N+](C)(CC)CCOC(=O)C(O)(c1ccccc1)C1CCCCC1.[Br-]` (configuration not stated), the relative growth is reported as inactive: 1.17.
With `C[C@H]1CN([C@@H](C)CO)C(=O)c2cc(-c3ccncc3)cnc2O[C@@H]1CN(C)S(=O)(=O)c1ccc(F)cc1` the relative growth was inactive: 0.991.
`COCC(=O)Nc1ccc2c(c1)OC[C@@H](C)N(C(=O)c1ccccc1F)C[C@@H](C)[C@@H](OC)CN(C)C2=O` was tested, and the relative growth was inactive: 0.986.
For `C[C@@H]1CN([C@@H](C)CO)C(=O)Cc2cc(NC(=O)c3ccncc3)ccc2O[C@H]1CN(C)S(=O)(=O)c1cccs1`, the relative growth was inactive: 1.01.
With `C[C@@H]1CN([C@@H](C)CO)C(=O)c2cc(NS(=O)(=O)c3cn(C)cn3)ccc2O[C@@H]1CN(C)S(=O)(=O)c1ccccc1` the relative growth was inactive: 1.01.
With `C[C@H]1CN([C@@H](C)CO)S(=O)(=O)c2ccc(Br)cc2O[C@H]1CN(C)C(=O)C1CCCCC1` the relative growth was inactive: 1.
In the case of `Cc1ccc(S(=O)(=O)Nc2ccc3c(c2)C(=O)N([C@@H](C)CO)C[C@@H](C)[C@@H](CN(C)C(=O)NC(C)C)O3)cc1`, the relative growth is reported as inactive: 0.995.
With `C[C@H]1CN([C@@H](C)CO)C(=O)c2cc(C#CC3(O)CCCC3)cnc2O[C@H]1CN(C)C(=O)Cc1cccnc1` the relative growth was inactive: 1.04.
`C[C@@H]1CN([C@@H](C)CO)C(=O)c2c(c3ccccc3n2C)-c2ccccc2CO[C@H]1CN(C)C(=O)Nc1ccccc1C(F)(F)F` was tested, and the relative growth was inactive: 1.01.
With `CC(C)NNC(=O)c1ccncc1` the relative growth was inactive: 0.98.
In the case of `C[C@H]1CN([C@@H](C)CO)C(=O)c2cccc(NC(=O)c3cnccn3)c2O[C@H]1CN(C)C(=O)Nc1ccc2c(c1)OCO2`, the relative growth is reported as inactive: 0.993.
In the case of `Cc1noc(C)c1S(=O)(=O)N(C)C[C@@H]1OCCCC[C@H](C)Oc2ccc(NC(=O)Nc3ccc(F)cc3)cc2C(=O)N([C@H](C)CO)C[C@@H]1C`, the relative growth is reported as inactive: 1.
`CO[C@@H]1CN(C)C(=O)c2cc(NS(=O)(=O)c3cn(C)cn3)ccc2OC[C@@H](C)N(Cc2cccc(F)c2)C[C@@H]1C` was tested, and the relative growth was inactive: 1.02.
With `CNCC(=O)O` the relative growth was inactive: 0.986.
For `C[C@H](CO)N1C[C@H](C)[C@H](CN(C)S(=O)(=O)c2ccccc2)Oc2ccc(NC(=O)Cn3cnnn3)cc2CC1=O`, the relative growth was inactive: 0.985.
`COc1cccc2ccc(Cl)nc12` was tested, and the relative growth was inactive: 0.995.
For `C[C@H]1CN([C@@H](C)CO)C(=O)c2cccc(NC(=O)NC3CCCCC3)c2O[C@H]1CN(C)Cc1ccc(C(F)(F)F)cc1`, the relative growth was inactive: 0.985.
For `Cc1n[nH]c(C)c1CC(=O)O`, the relative growth was inactive: 0.991.
In the case of `C[C@@H]1CN([C@H](C)CO)C(=O)c2cccc(NS(=O)(=O)c3cccs3)c2O[C@@H]1CN(C)Cc1ccc(Oc2ccccc2)cc1`, the relative growth is reported as inactive: 1.03.
`C/C=C(/C)C(=O)O[C@H]1[C@@H](OC(C)=O)[C@@]2(CO)[C@@H](O)C[C@@]3(C)C(=CC[C@H]4[C@@]5(C)CC[C@@H](O[C@H]6O[C@H](C(=O)O)[C@@H](O[C@H]7O[C@@H](CO)[C@@H](O)[C@@H](O)[C@@H]7O)[C@@H](O)[C@@H]6O[C@H]6O[C@@H](CO)[C@@H](O)[C@@H](O)[C@@H]6O)[C@@](C)(CO)[C@@H]5CC[C@]43C)[C@@H]2CC1(C)C` was tested, and the relative growth was inactive: 0.94.
For `C[C@@]1(O)[C@H](O)[C@@H](CO)O[C@H]1n1ccc(N)nc1=O`, the relative growth was inactive: 1.01.
`C[C@H]1CN([C@@H](C)CO)C(=O)c2cccc(NC(=O)NC3CCCCC3)c2O[C@@H]1CN(C)Cc1ccc(C(F)(F)F)cc1` was tested, and the relative growth was inactive: 0.846.
In the case of `C[C@@H]1CCCCO[C@H](CN(C)C(=O)Nc2ccc(F)cc2)[C@H](C)CN([C@H](C)CO)C(=O)c2cc(NC(=O)Nc3ccc(C(F)(F)F)cc3)ccc2O1`, the relative growth is reported as inactive: 0.991.
In the case of `C[C@@H]1CN([C@@H](C)CO)C(=O)c2cc(NC(=O)Cn3cnnn3)ccc2O[C@@H]1CN(C)Cc1ccc(C(F)(F)F)cc1`, the relative growth is reported as inactive: 1.06.
`C[C@H](CO)N1C[C@H](C)[C@H](CN(C)C(=O)NC2CCCCC2)Oc2c(NS(=O)(=O)c3cn(C)cn3)cccc2C1=O` was tested, and the relative growth was inactive: 0.997.
For `C[C@@H]1CCCCO[C@@H](CN(C)Cc2ccc(C(=O)Nc3ccccc3N)cc2)[C@@H](C)CN([C@H](C)CO)C(=O)c2cc(NC(=O)c3ccccc3)ccc2O1`, the relative growth was inactive: 1.
With `C/C=C/c1cnc2c(c1)C(=O)N([C@@H](C)CO)C[C@H](C)[C@H](CN(C)S(=O)(=O)c1ccc(OC)cc1)O2` the relative growth was inactive: 0.99.
For `Cc1noc(C)c1NC(=O)N(C)C[C@@H]1OCCCC[C@@H](C)Oc2ccc(NC(=O)Nc3ccc(F)cc3)cc2C(=O)N([C@@H](C)CO)C[C@H]1C`, the relative growth was inactive: 0.982.
For `C[C@@H]1CCCCO[C@H](CN(C)C(=O)Nc2ccc(F)cc2)[C@H](C)CN([C@@H](C)CO)C(=O)c2cc(NC(=O)Nc3ccccc3)ccc2O1`, the relative growth was inactive: 1.03.
In the case of `C[C@@H]1CN([C@H](C)CO)C(=O)Cc2cc(NC(=O)C3CC3)ccc2O[C@@H]1CN(C)C(=O)Nc1ccc(F)cc1`, the relative growth is reported as inactive: 1.03.
For `C[C@H]1CN([C@@H](C)CO)C(=O)CCCn2nncc2CO[C@@H]1CN(C)S(=O)(=O)c1ccc(Oc2ccccc2)nc1`, the relative growth was inactive: 0.997.
For `O=C(C[C@H]1CC[C@@H]2[C@H](COC[C@@H](O)CN2S(=O)(=O)c2ccccc2)O1)N1CCOCC1`, the relative growth was inactive: 0.968.
`C[C@H]1CCCCO[C@@H](CN(C)S(=O)(=O)c2ccc(F)cc2)[C@@H](C)CN([C@@H](C)CO)C(=O)c2cc(NC(=O)C3CCCCC3)ccc2O1` was tested, and the relative growth was inactive: 1.01.
In the case of `CO[C@@H]1CN(C)C(=O)c2ccc(NC(=O)c3nc4ccccc4s3)cc2OC[C@@H](C)N(Cc2ccccc2)C[C@H]1C`, the relative growth is reported as inactive: 1.01.
